According to the supplement of paper PMC4604168 (melanoma cell lines):
The other results are listed elsewhere or left out. Repeats are few or missing, and single values can be far off.

Experiments:
Experiment in all cases: cell count relative to DMSO control; melanoma cells; higher = more viable cells
Details in all cases: library dose: standard library concentration; 72 h
[1] = tested on: G361
[2] = tested on: IPC-298
[3] = tested on: IST-MEL1
[4] = tested on: LB2518-MEL
[5] = tested on: LOXIMVI
[6] = tested on: MEL-HO
[7] = tested on: MZ2-MEL
[8] = tested on: MeWo
[9] = tested on: RPMI7951
[10] = tested on: RVH-421
[11] = tested on: SkMel28
[12] = tested on: SkMel2
[13] = tested on: SkMel30
[14] = tested on: SkMel5
[15] = tested on: UACC257
[16] = tested on: UACC62
[17] = tested on: WM115
[18] = tested on: WM1716
[19] = tested on: WM1745
[20] = tested on: WM3526
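Further: cells treated in 1,536-well plates, then fixed and DAPI-stained, with nuclei counted from automated high-throughput microscope images.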

SMILES | cell count [1] [%] | cell count [2] [%] | cell count [3] [%] | cell count [4] [%] | cell count [5] [%] | cell count [6] [%] | cell count [7] [%] | cell count [8] [%] | cell count [9] [%] | cell count [10] [%] | cell count [11] [%] | cell count [12] [%] | cell count [13] [%] | cell count [14] [%] | cell count [15] [%] | cell count [16] [%] | cell count [17] [%] | cell count [18] [%] | cell count [19] [%] | cell count [20] [%]
Cn1nnc2c(C(N)=O)ncn2c1=O [temozolomide] + Cc1ccc(NC(=O)c2cccc(N(C)C)c2)cc1NC(=O)c1ccc(O)cc1 [ZM336372] (first compound 10 µM, partner dose 10 µM) | 95.7 | 104 | 75.5 | 82.2 | 90.6 | 95.4 | 88.7 | 97.5 | 70.7 | 128 | 32.3 | 92.9 | 52.9 | 88.7 | 95.4 | 61.5 | 78.7 | 64.4 | 72.5 | 97.3
O=C(O)[C@@H]1[O][Sb](=[O])([O][Sb]2(=[O])[O][C@H]([C@H](O)CO)[C@H](O)[C@H](C(=O)O)[O]2)[O][C@H]([C@H](O)CO)[C@@H]1O (stereo not given in full) [stibogluconate] + OCCn1cc(-c2cnc3nnn(Cc4ccc5ncccc5c4)c3n2)cn1 [PF04217903] (first compound 10 µM, partner dose 5 µM) | 85.4 | 87.2 | 98.9 | 86.2 | 75.5 | 92 | 102 | 80.7 | 65.9 | 103 | 87.7 | 84.2 | 80.2 | 66.5 | 92.5 | 89.3 | 96.9 | 74.8 | 65.3 | 74.2
Cc1cc(N2CCOCC2)cc2[nH]c(-c3c(NC[C@@H](O)c4cccc(Cl)c4)cc[nH]c3=O)nc12 + N#Cc1c(O)c2c(-c3ccc(-c4ccccc4O)cc3)csc2[nH]c1=O [A769662] (first compound 1 µM, partner dose 10 µM) | 104 | 112 | 103 | 106 | 101 | 98.4 | 113 | 108 | 116 | 78.1 | 102 | 104 | 73.2 | 75.4 | 98 | 86 | 108 | 105 | 75.7 | 82
O=C(O)c1ccc2c(c1)nc(Nc1cccc(Cl)c1)c1ccncc12 + COc1ccc(Cl)c(Nc2nc3ccccc3nc2NS(=O)(=O)c2cccc(NC(=O)C(C)(C)N)c2)c1 [XL147] (first compound 2 µM, partner dose 4 µM) | 61.9 | 64.9 | 69.7 | 101 | 79.5 | 57.5 | 55.2 | 80.9 | 67.4 | 93.4 | 74.4 | 75.9 | 69.6 | 86.8 | 85 | 86.1 | 86.3 | 110 | 69.5 | 65.9
Cn1nnc2c(C(N)=O)ncn2c1=O [temozolomide] + COc1cc2ncnc(Nc3ccc(Oc4ccccc4)cc3)c2cc1OC [SrcI1] (first compound 10 µM, partner dose 10 µM) | 81 | 74 | 83.3 | 78.3 | 92 | 90.4 | 75.9 | 88.8 | 53.1 | 148 | 34.5 | 105 | 83.4 | 70.2 | 87.7 | 51.8 | 62.5 | 57.3 | 53.8 | 60.4
O=C(Nc1cc(C(F)(F)F)cc(C(F)(F)F)c1)c1cc(Cl)ccc1O + Cc1ccc(NC(=O)c2cccc(N(C)C)c2)cc1NC(=O)c1ccc(O)cc1 [ZM336372] (first compound 0.08 µM, partner dose 10 µM) | 82.5 | 85.6 | 74.2 | 80.4 | 129 | 79.1 | 85.7 | 96.9 | 67.8 | 128 | 105 | 92 | 84.5 | 80.7 | 73.4 | 94.7 | 82 | 104 | 81.3 | 101
O=C(O)c1ccc2c(c1)nc(Nc1cccc(Cl)c1)c1ccncc12 + OCc1c[nH]c2ccccc12 [Indole-3-carbinol] (first compound 2 µM, partner dose 4 µM) | 69.8 | 71.1 | 88.2 | 93.8 | 81.6 | 66.4 | 65.9 | 88 | 99.4 | 262 | 79.1 | 90.5 | 70.5 | 94.5 | 124 | 86.1 | 95.9 | 117 | 77.4 | 78.2
O=C(O)[C@@H]1[O][Sb](=[O])([O][Sb]2(=[O])[O][C@H]([C@H](O)CO)[C@H](O)[C@H](C(=O)O)[O]2)[O][C@H]([C@H](O)CO)[C@@H]1O (stereo not given in full) [stibogluconate] + C=C(c1ccc(C(=O)O)cc1)c1cc2c(cc1C)C(C)(C)CCC2(C)C [Bexarotene] (first compound 10 µM, partner dose 10 µM) | 41.8 | 97.6 | 92.6 | 90 | 146 | 87.7 | 56.5 | 93.7 | 95.9 | 96.8 | 102 | 93 | 78.4 | 71.4 | 77.4 | 84.3 | 129 | 84.2 | 85.4 | 82
O=C(Nc1ccccc1)c1cc([N+](=O)[O-])ccc1Cl + CCN(CC)CCCCNc1ncc2cc(-c3cc(OC)cc(OC)c3)c(NC(=O)NC(C)(C)C)nc2n1 [PD173074] (first compound 10 µM, partner dose 0.5 µM) | 97 | 101 | 102 | 102 | 63.1 | 98 | 96.7 | 99.6 | 85.7 | 95.4 | 80.8 | 96.6 | 106 | 75.1 | 110 | 88.1 | 84.7 | 159 | 91.3 | 92.2
O=C(O)c1ccc2c(c1)nc(Nc1cccc(Cl)c1)c1ccncc12 + CC(=O)c1c(C)c2cnc(Nc3ccc(N4CCNCC4)cn3)nc2n(C2CCCC2)c1=O [palbociclib] (first compound 2 µM, partner dose 0.2 µM) | 51.6 | 52.6 | 75.2 | 66.7 | 49.9 | 49.4 | 52.8 | 48.9 | 59.8 | 57.4 | 28.8 | 49.1 | 50.2 | 52.7 | 71.1 | 40.3 | 52.2 | 38.2 | 65.6 | 44.2
O=C(O)c1ccc2c(c1)nc(Nc1cccc(Cl)c1)c1ccncc12 + Cn1c(Nc2ccc(C(F)(F)F)cc2)nc2cc(Oc3ccnc(-c4ncc(C(F)(F)F)[nH]4)c3)ccc21 [CHIR265] (first compound 2 µM, partner dose 0.4 µM) | 15.8 | 47.1 | 79.7 | 48.6 | 84.9 | 39.9 | 79.7 | 63.1 | 30.7 | 41.4 | 30.4 | 47.9 | 48.9 | 35.9 | 67.6 | 21.9 | 41.4 | 76.3 | 43.2 | 34.6
O=C(O)[C@@H]1[O][Sb](=[O])([O][Sb]2(=[O])[O][C@H]([C@H](O)CO)[C@H](O)[C@H](C(=O)O)[O]2)[O][C@H]([C@H](O)CO)[C@@H]1O (stereo not given in full) [stibogluconate] + Cc1ccc(NC(=O)c2cccc(N(C)C)c2)cc1NC(=O)c1ccc(O)cc1 [ZM336372] (first compound 10 µM, partner dose 10 µM) | 73.4 | 98.2 | 69.8 | 100 | 105 | 86.6 | 86.9 | 77.5 | 82.3 | 102 | 88.1 | 88.2 | 112 | 100 | 104 | 97.6 | 86.3 | 103 | 54.4 | 94.4
Cc1cc(N2CCOCC2)cc2[nH]c(-c3c(NC[C@@H](O)c4cccc(Cl)c4)cc[nH]c3=O)nc12 + CN(NC(=O)CC(=O)NN(C)C(=S)c1ccccc1)C(=S)c1ccccc1 [STA4783] (first compound 1 µM, partner dose 0.03 µM) | 27 | 60.8 | 31.5 | 26.7 | 76.2 | 83.4 | 109 | 21 | 108 | 52.7 | 41.6 | 53.7 | 67.4 | 57.2 | 93 | 28.7 | 27.6 | 107 | 17 | 103
O=C(Nc1ccccc1)c1cc([N+](=O)[O-])ccc1Cl + COc1cc2ncnc(Nc3ccc(Oc4ccccc4)cc3)c2cc1OC [SrcI1] (first compound 10 µM, partner dose 10 µM) | 66.9 | 68.6 | 85.7 | 112 | 120 | 78.2 | 52.8 | 60.9 | 44.5 | 111 | 80.3 | 94.8 | 83.9 | 53.9 | 79.5 | 72.5 | 52 | 79.5 | 48.9 | 58.3
O=C(Nc1ccccc1)c1cc([N+](=O)[O-])ccc1Cl + c1cc(-c2cnn3cc(-c4ccc(OCCN5CCCCC5)cc4)cnc23)ccn1 [Dorsomorphin] (first compound 10 µM, partner dose 2 µM) | 47.4 | 85.1 | 88.4 | 34 | 54.3 | 87.2 | 56.8 | 71.4 | 35.8 | 103 | 32.8 | 81.4 | 86.6 | 50.6 | 43.2 | 35.5 | 61.3 | 61.5 | 45 | 73.1
O=C(Nc1cc(C(F)(F)F)cc(C(F)(F)F)c1)c1cc(Cl)ccc1O + COc1ccc(Cl)c(Nc2nc3ccccc3nc2NS(=O)(=O)c2cccc(NC(=O)C(C)(C)N)c2)c1 [XL147] (first compound 0.08 µM, partner dose 4 µM) | 89.2 | 72.8 | 61.7 | 108 | 117 | 72 | 99.1 | 75.9 | 93.2 | 82.3 | 92.8 | 109 | 129 | 79.7 | 90 | 79.6 | 82.6 | 81.3 | 103 | 90.8
O=C(Nc1cc(C(F)(F)F)cc(C(F)(F)F)c1)c1cc(Cl)ccc1O + C[C@]1(O)C[C@@H](c2nc(-c3ccc4ccc(-c5ccccc5)nc4c3)c3c(N)nccn32)C1 [OSI906] (first compound 0.08 µM, partner dose 2 µM) | 92.8 | 81.3 | 83.7 | 81.1 | 71.8 | 96 | 116 | 94 | 89.7 | 116 | 88.6 | 73.6 | 93.5 | 81.6 | 93.6 | 68.4 | 98.2 | 80.7 | 92.3 | 81
